Reference: the supplement of paper PMC10126150
Values marked as one replicate rest on one cluster of the flow cell; about a third of the high ones do not repeat.

Test system: ATP
Assay: switch fluorescence ratio, 500 uM ATP over buffer (Cy3 cluster intensity, sum of 5 cycles each) (fold (ratio)); higher = stronger signal-on switching upon ATP binding; sequences stand for … in TCGTCGGCAGCGTCAGATGTGTATAAGAGACAGTTTTTTTTTTTTTTTTTTTTTTTTT…TC
Conditions: aptamer strand: ATP DNA aptamer (quencher-CACCTGGGGGAGTATTGCGGAGGAAGG + anchor), 100 nM annealed; ATP concentration: 500 uM; one replicate
Method in brief: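 Imaging in selection buffer was followed by imaging after 15 min with 500 uM ATP at 22 °C, for Cy3-labelled switching-strand clusters annealed to 100 nM quencher-labelled ATP aptamer on a modified Illumina MiSeq flow-cell. Five of these buffer/ATP cycles ran, separated by NaOH stripping and re-annealing. The fluorescence ratio per cluster is summed target-cycle over summed buffer-cycle Cy3 intensity, averaged per switch-domain sequence; clusters outside 100-1000 RFU were removed.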
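Also: ATP exposure 15 min at 22 °C before imaging.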

Row | Sequence | switch fluorescence ratio
1 | GCAGCTGGGG | 1.05
2 | GCAGCTGTGA | 0.997
3 | GCAGGACTTT | 1.02
4 | GCAGGAGCCG | 0.975
5 | GCAGGAGCTG | 0.997
6 | GCAGGCGTCC | 1.06
7 | GCAGGCTGCT | 0.981
8 | GCAGGCTGTG | 1.02
9 | GCAGGGATCT | 1
10 | GCAGGGGTCC | 1.05
11 | GCAGGTCCGA | 1.02
12 | GCAGTAAATT | 1.01
13 | GCAGTAAGTA | 1.02
14 | GCAGTAATGC | 1.79
15 | GCAGTGCAAC | 0.999
16 | GCAGTGTCAA | 0.995
17 | GCAGTTACGG | 1.07
18 | GCATACCGGG | 1.06
19 | GCATACCTAA | 1.01
20 | GCATAGAGCC | 0.986
21 | GCATATAACA | 0.975
22 | GCATATAATT | 0.998
23 | GCATATAGCT | 0.997
24 | GCATATTATC | 1.1
25 | GCATCACCGC | 1.15

Row | Sequence | switch fluorescence ratio
26 | GCATCGGGCA | 1.03
27 | GCATCTCTAA | 1.02
28 | GCATCTCTAT | 0.959
29 | GCATGAGCG | 1
30 | GCATGAGGGG | 1.01
31 | GCATGCTAGA | 1.02
32 | GCATGGTTG | 1.03
33 | GCATGGTTTA | 1.02
34 | GCATGTAACG | 1.02
35 | GCATGTCCTC | 1.04
36 | GCATTATCCC | 1.53
37 | GCATTATGCT | 0.997
38 | GCATTCGTCG | 1.01
39 | GCATTGCCTT | 0.978
40 | GCATTGCGAG | 1.09
41 | GCATTGCTTA | 1.01
42 | GCATTGGAGA | 1.03
43 | GCATTGTCGG | 0.969
44 | GCATTGTTTC | 0.985
45 | GCATTTGTCC | 1.03
46 | GCCAACCGCA | 1.38
47 | GCCAAGATTA | 0.988
48 | GCCAAGTGCT | 0.994
49 | GCCAATGAGT | 0.988
50 | GCCAATTCGG | 0.916

Row | Sequence | switch fluorescence ratio
51 | GCCAATTTAG | 1.02
52 | GCCACAAGCT | 1.07
53 | GCCACAGGT | 1.7
54 | GCCACATGAT | 0.98
55 | GCCACTTTTG | 1.01
56 | GCCAGGTACG | 1.07
57 | GCCAGTACTT | 1
58 | GCCAGTTCC | 1.08
59 | GCCAGTTGCC | 1.03
60 | GCCATACCAT | 1.01
61 | GCCATATCGG | 0.959
62 | GCCATCTTAC | 1.07
63 | GCCATGCTGG | 1.04
64 | GCCATGGCAA | 1.05
65 | GCCATTACAG | 1.03
66 | GCCATTCAAT | 1.01
67 | GCCATTCGCC | 1.03
68 | GCCATTGGCT | 0.983
69 | GCCATTTGGC | 0.991
70 | GCCCAAATAG | 1.04
71 | GCCCAACAG | 1.04
72 | GCCCATAACA | 0.996
73 | GCCCATCCCG | 1
74 | GCCCCATTAG | 1.07
75 | GCCCCCTAAA | 1.01

Row | Sequence | switch fluorescence ratio
76 | GCCCCGATGC | 1.22
77 | GCCCCGCTAT | 2.61
78 | GCCCCTGATG | 1.19
79 | GCCCGAAAAT | 0.959
80 | GCCCGAAGTT | 1.01
81 | GCCCGATAGG | 0.974
82 | GCCCGATCCG | 1.03
83 | GCCCGCAGGT | 1.42
84 | GCCCGTATTT | 0.973
85 | GCCCTCGACG | 1.03
86 | GCCCTGGGCA | 0.976
87 | GCCCTTGACG | 0.992
88 | GCCGAAAAAT | 0.972
89 | GCCGAAGAG | 0.992
90 | GCCGAAGGGC | 1
91 | GCCGACCAGA | 1.07
92 | GCCGACGGGA | 1.29
93 | GCCGACGTCC | 1.11
94 | GCCGAGGTGC | 1.2
95 | GCCGAGTCGG | 1.03
96 | GCCGATCTAC | 1.05
97 | GCCGATTAGT | 0.977
98 | GCCGCAAATA | 4.37
99 | GCCGCTAAAA | 5.45
100 | GCCGCTCGCA | 1.21
